From patent publication US20240277738A1, “GAMETOCYTOCIDAL COMPOUND” (Eberhard Karls Universität Tübingen Medizinische Fakultãt, priority 2021, published 2024)

Legend:
[1] = test system: Plasmodium knowlesi strain A1-H.1; conditions: read-out: IC50, 6 day-assays, A1-H.1; P. knowlesi A1-H.1, 6 days of incubation
[2] = test system: Plasmodium knowlesi strain A1-H.1; assay: microbe, parasite or virus in culture
[3] = 72 h, read-out: IC50, 3 day-assays, A1-H.1
[4] = 144 h, read-out: IC50, 6 day-assays, A1-H.1

SMILES	IC50 [1]	IC50 [2, 3]	IC50 [2, 4]
CC(C)[C@@H](N)C(=O)O[C@H](C)[C@@H]1C/C=C\CC[C@H](O)C(C)(C)[C@@H]2CC[C@@H](C)[C@@]3(O2)O[B-]24O[C@@H](C(=O)O1)[C@]1(O[C@@H](CC[C@H]1C)C(C)(C)[C@H](O)CCC[C@@H]1C[C@H](OC(=O)[C@@H]3O2)[C@@H](C)O1)O4.[H+] [Boromycin]	3.4 ± 1.4 nM		
CCN(CC)CCCC(C)Nc1ccnc2cc(Cl)ccc12 (stereo not shown) [Chloroquine, Chloroquine diphosphate]		14.5 ± 9.3 nM	17 ± 11 nM
CN(C)[C@@H]1C(O)=C(C(N)=O)C(=O)[C@@]2(O)C(O)=C3C(=O)c4c(O)ccc(Cl)c4[C@@](C)(O)[C@H]3C[C@@H]12 [Chlortetracycline]		> 18000 nM	8320 ± 2630 nM
CCC[C@@H]1C[C@@H](C(=O)N[C@@H]([C@H]2O[C@H](SC)[C@H](O)[C@@H](O)[C@H]2O)[C@H](C)Cl)N(C)C1 [Clindamycin]		77.1 ± 6.4 nM	14.7 ± 12 nM
CN(C)[C@@H]1C(O)=C(C(N)=O)C(=O)[C@@]2(O)C(O)=C3C(=O)c4c(O)ccc(Cl)c4[C@@H](O)[C@H]3C[C@@H]12 [Demeclocycline]		> 18000 nM	386 ± 262 nM
C[C@H]1c2cccc(O)c2C(=O)C2=C(O)[C@]3(O)C(=O)C(C(N)=O)=C(O)[C@@H](N(C)C)[C@@H]3[C@@H](O)[C@@H]21 [Doxycycline, Doxycycline Hyclate]		1850 ± 1040 nM	663 ± 508 nM
CN(C)[C@@H]1C(O)=C(C(N)=O)C(=O)[C@@]2(O)C(O)=C3C(=O)c4c(O)c(NC(=O)CN5CCCC5)cc(F)c4C[C@H]3C[C@@H]12 [Eravacycline]		2320 ± 1520 nM	12.5 ± 11 nM
CO[C@@H]1[C@@H](O[C@@H]2O[C@H](C)[C@@H](O[C@H]3C[C@@](C)(O)[C@@H](OC(=O)CC(C)C)[C@H](C)O3)[C@H](N(C)C)[C@H]2O)[C@@H](CC=O)C[C@@H](C)[C@@H](O)/C=C/C=C/C[C@@H](C)OC(=O)C[C@H]1OC(C)=O [Josamycin]		> 18000 nM	164 ± 147 nM
CN(C)[C@@H]1C(O)=C(C(=O)NCNCCCC[C@H](N)C(=O)O)C(=O)[C@@]2(O)C(O)=C3C(=O)c4c(O)cccc4[C@@](C)(O)[C@H]3C[C@@H]12 [Lymecycline]		15700 ± 5350 nM	1150 ± 226 nM
C=C1c2c(Cl)ccc(O)c2C(=O)C2=C(O)[C@]3(O)C(=O)C(C(N)=O)=C(O)[C@@H](N(C)C)[C@@H]3[C@@H](O)[C@H]12 [Meclocycline]		7690 ± 4390 nM	1490 ± 547 nM
C=C1c2cccc(O)c2C(=O)C2=C(O)[C@]3(O)C(=O)C(C(N)=O)=C(O)[C@@H](N(C)C)[C@@H]3[C@@H](O)[C@H]12 [Methacycline]		> 18000 nM	2990 ± 948 nM
CN(C)c1ccc(O)c2c1C[C@H]1C[C@H]3[C@H](N(C)C)C(O)=C(C(N)=O)C(=O)[C@@]3(O)C(O)=C1C2=O [Minocycline, Minocycline hydrochloride]		3130 ± 1650 nM	146 ± 172 nM
CO[C@H]1C[C@H](O[C@H]2[C@H](C)[C@@H](O[C@@H]3O[C@H](C)C[C@H](N(C)C)[C@H]3O)[C@@H](C)C[C@@]3(CO3)C(=O)[C@H](C)[C@@H](O)[C@@H](C)[C@@H](C)OC(=O)[C@@H]2C)O[C@@H](C)[C@@H]1O [Oleandomycin]		> 18000 nM	3920 ± 2770 nM
CN(C)c1cc(CNCC(C)(C)C)c(O)c2c1C[C@H]1C[C@H]3[C@H](N(C)C)C(O)=C(C(N)=O)C(=O)[C@@]3(O)C(O)=C1C2=O [Omadacycline]		1160 ± 339 nM	285 ± 57 nM
CON(C)Cc1ccc(O)c2c1C[C@H]1C[C@H]3[C@H](N(C)C)C(O)=C(C(N)=O)C(=O)[C@@]3(O)C(O)=C1C2=O [Sarecycline, Sarecycline hydrochloride]		1870 ± 1010 nM	920 ± 512 nM
CO[C@H]1C[C@H](O[C@H]2[C@H](C)[C@@H](O[C@@H]3O[C@H](C)C[C@H](N(C)C)[C@H]3OC(C)=O)[C@@H](C)C[C@@]3(CO3)C(=O)[C@H](C)[C@@H](OC(C)=O)[C@@H](C)[C@@H](C)OC(=O)[C@@H]2C)O[C@@H](C)[C@@H]1OC(C)=O [Troleandomycin]		> 18000 nM	2820 ± 1970 nM

Where a name gives a salt, the structure may show the parent alone. Read-outs that look alike come from different tables or passages of the source.
